Reference: PubChem BioAssay AID504832 (National Center for Advancing Translational Sciences (NCATS), 2011)
Values joined by “and” are separate entries in the source; they are usually repeats but may differ in a detail not shown here. Equal values may be shown once. Out of some 310,000 compounds screened, about 18,000 (5.8%) were called active. Inconclusive means that the source gave no clear call. Such entries were picked first, then a sample of the others. Calls follow the shape of the dose curve; as a rule, active = well fitted inhibition curve with a large enough effect; inconclusive = small, poorly fitted or top-dose-only effect, or another doubt; inactive = no such curve, though single readings can be large or run the other way. Potencies of inconclusive entries are left out as doubtful fits.

assay: Primary qHTS for delayed death inhibitors of the malarial parasite plastid, 48 hour incubation; settings: P. falciparum luciferase growth in erythrocytes; series mostly up to 28.7 µM
How it was run: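 Here the parasites carry a stable luciferase gene and grow inside erythrocytes in Albumax-based RPMI medium with compound for one erythrocytic cycle. Activity is scored as loss of luminescent signal.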
% is scaled to controls: 0 for no effect and ±100 for the full control effect; potency is read from the fitted curve at half-maximal effect; tags tell the direction and shape of the fitted curve.

Row | SMILES | Potency | activity change, negative = inhibition
1 | O=C(Cc1nc2ccccc2[nH]1)c1ccc(Cl)cc1 | active: 2.33 µM | 
2 | Brc1cccc(C2Nc3cccc4cccc(c34)N2)c1 | inconclusive [inhibitor, partial curve, poor fit] | 
3 | COc1ccc(NC(=O)c2ccccc2OCc2ccc(F)cc2)c(OC)c1 | inconclusive [inhibitor, single point] | 
4 | O=C(O)CCCc1ccc(N(CCCl)CCCl)cc1 | inconclusive [inhibitor, full curve, poor fit] | 
5 | COCCn1nc2cc(C(=O)NCc3cc(C(F)(F)F)cc(C(F)(F)F)c3)ccc2c1OC | inconclusive [inhibitor, single point] | 
6 | O=C(CSc1nc2ncccc2[nH]1)Nc1ccccc1-c1ccccc1 | inactive | 
7 | COC1c2ccccc2C(=O)N1CCc1ccc(Cl)cc1 (configuration not stated) | inactive | 
8 | OCCC1CN(Cc2cccc3c2OCO3)CCN1Cc1ccccc1 (configuration not stated) | inactive | 
9 | COc1ccc(OC)c(NC(=O)COC(=O)c2c3c(nc4ccccc24)CCCC3)c1 | active: 8.28 µM | 
10 | COc1ccc(OC)c(NC(=O)COc2coc(CN3CCc4ccccc43)cc2=O)c1 | active: 10.4 µM | 
11 | CN1CCN(CCOc2ccc(-c3ccccc3)cc2)CC1 | inconclusive [inhibitor, full curve, poor fit] | 
12 | N#Cc1cc(-c2ccccc2)nn1-c1ccccc1 | inactive | 
13 | COc1ccc(/C=N/NC(=S)Nc2cc(C(F)(F)F)ccc2Cl)cc1 | inconclusive [inhibitor, single point] | 
14 | Cc1ccc(NC(=O)CCCc2nc3ccccc3c(=O)[nH]2)c(Cl)c1 | inconclusive [inhibitor, single point] | 
15 | CCC(c1nnc(SCC(=O)N2CC3(C)CC2CC(C)(C)C3)o1)N(C)C (configuration not stated) | inactive | 
16 | CSc1ccccc1OCc1cc(C(=O)N2CCc3[nH]cnc3C2c2ccccn2)no1 (configuration not stated) | inconclusive [inhibitor, partial curve, poor fit] | 
17 | CC(C)c1ccc(NC2CCCN(C(=O)CCN3CCOCC3)C2)cc1 (configuration not stated) | inactive | 
18 | Cc1cc(NC(=O)CN2C(=O)NC(c3ccccc3)(c3ccc(C)c(C)c3)C2=O)no1 (configuration not stated) | inconclusive [inhibitor, partial curve, poor fit] | 
19 | C=CCc1cccc2cc(C(=O)N3CCN(c4ccccn4)CC3)c(=O)oc12 | inactive | 
20 | COc1ccc(CC(=O)Nc2nc3ccccc3[nH]2)cc1 | inconclusive [inhibitor, partial curve] | 
21 | c1ccc2c(-c3nc(-c4ccncc4)no3)cccc2c1 | inconclusive [inhibitor, single point] | 
22 | CC1CCN(Cc2c(C(=O)N/N=C/c3ccc(OC(C)C)cc3)nnn2-c2nonc2N)CC1 | inconclusive [inhibitor, single point] | 
23 | CC(NC(=O)CCN1N=C(c2ccccc2)CCC1=O)c1ccc2c(c1)OCCO2 (configuration not stated) | inactive | 
24 | CCC(C)[C@H](NC(=O)[C@@H]1Cc2c([nH]c3ccccc23)C2c3ccccc3C(=O)N21)C(=O)N1CCC[C@@H]1C(=O)O (some centres not stated) | inconclusive [inhibitor, partial curve, poor fit] | 

Row | SMILES | Potency | activity change, negative = inhibition
25 | CC1CCCN(C(=O)c2ccc(NC(=O)CC3SC(N4CCCC4)=NC3=O)cc2)C1 (configuration not stated) | inconclusive [inhibitor, partial curve] | 
26 | Cc1ccc(NC(=O)C2CCCN(c3ncccn3)C2)c(C)c1 (configuration not stated) | inactive | 
27 | CC(=O)CCC(=O)OCC(=O)c1ccc(C(F)(F)F)cc1 | inconclusive [inhibitor, full curve, poor fit] | 
28 | CCO[C@@H]1OC(C(=O)NCc2ccccc2)=C[C@H](c2csc3ccccc23)[C@H]1CCCO | inconclusive [inhibitor, partial curve] | 
29 | O=C(N/N=C/c1ccc(-c2ccccc2)o1)c1ccccc1O | inconclusive [inhibitor, partial curve, poor fit] | 
30 | O=c1c(-c2n[nH]c(=S)o2)cccn1Cc1ccccc1 | inactive | 
31 | Cc1ccccc1C(=O)Nc1cc(S(=O)(=O)N2CCCCC2)ccc1N1CCN(C)CC1 | inconclusive [inhibitor, partial curve] | 
32 | CC1CCN(c2oc(-c3cccc4ccccc34)nc2C#N)CC1 | inactive | 
33 | O=S(=O)(O)c1nc2ccccc2n1Cc1ccc(Cl)cc1Cl | inactive | 
34 | O=C(c1noc2c1CCCC2)N1CCc2c([nH]c3ccccc23)C1c1ccccn1 (configuration not stated) | inconclusive [inhibitor, single point] | 
35 | COc1nc(Nc2ccc(C(C)C)cc2)nc(OC)n1 | active: 1.17 µM | 
36 | CCc1nnc(NS(=O)(=O)c2ccc(N/C=C\C(=O)c3ccc(C)cc3)cc2)s1 | inactive | 
37 | O=C(CN1CCN(c2ncc(C(F)(F)F)cc2Cl)CC1)NCCNc1ncc(C(F)(F)F)cc1Cl | inconclusive [inhibitor, single point] | 
38 | O=C(CN1CCCC1)Nc1ccc(Br)cc1 | inactive | 
39 | CN1CCN(CCCN2c3ccccc3Sc3ccc(C(F)(F)F)cc32)CC1 | active: 16.9 µM and active: 10.4 µM | 
40 | COc1ccccc1NC(=O)CN1C(=O)C(C)SC(C)C1=O (configuration not stated) | inactive | 
41 | Cn1c(SCC(=O)NCc2ccc3c(c2)OCO3)nc2scc(-c3cccs3)c2c1=O | inconclusive [inhibitor, single point] | 
42 | O=C(O)c1sc2cc(C(F)(F)F)cnc2c1-c1ccccn1 | inactive | 
43 | CC(C)c1cccc(C(C)C)c1NC(=O)c1ccccc1 |  | inactive: -11.4% [at 5.75 µM]
44 | Cc1cc(NC(=O)c2cc(C)on2)no1 | inactive | 
45 | CCOC(=O)/C=c1\s/c(=C\c2ccc(C(=O)OC)cc2)c(=O)n1CC(=O)Nc1ccccc1 | inconclusive [inhibitor, partial curve, poor fit] | 
46 | O=C(NCC1CCCN(C(=O)Cc2ccccc2Cl)C1)c1ccc(F)cc1 (configuration not stated) | inconclusive [inhibitor, single point] | 
47 | COc1ccc(/C=N/NS(=O)(=O)c2ccc(F)cc2)cc1COc1cc(F)ccc1[N+](=O)[O-] | inconclusive [inhibitor, full curve, poor fit] | 
